Assay results reported in the supplement of paper PMC10126150.
Values marked as one replicate rest on one cluster of the flow cell; about a third of the high ones do not repeat.
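Note: ATP exposure 15 min at 22 °C before imaging.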

The sequences below were run on ATP (assay: switch fluorescence ratio, 500 uM ATP over buffer (Cy3 cluster intensity, sum of 5 cycles each) (fold (ratio)); higher = stronger signal-on switching upon ATP binding; sequences stand for … in TCGTCGGCAGCGTCAGATGTGTATAAGAGACAGTTTTTTTTTTTTTTTTTTTTTTTTT…TC). Settings: aptamer strand: ATP DNA aptamer (quencher-CACCTGGGGGAGTATTGCGGAGGAAGG + anchor), 100 nM annealed; ATP concentration: 500 uM; one replicate.
Summary of the method: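 Clusters carrying Cy3-labelled switching strands on a modified Illumina MiSeq flow-cell were annealed to 100 nM quencher-labelled ATP aptamer and imaged in selection buffer. They were imaged again after 15 min with 500 uM ATP at 22 °C, over five buffer/ATP cycles with NaOH stripping and re-annealing in between. For each cluster, the fluorescence ratio is the summed Cy3 intensity of the target cycles divided by that of the buffer cycles, averaged per switch-domain sequence. Clusters outside 100-1000 RFU were left out.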
GACATCATTA showed a switch fluorescence ratio of 1.02. In the case of TTACTTTGCC, the switch fluorescence ratio is reported as 1.04. For TAAGAGGTCT, the switch fluorescence ratio was 0.994. In the case of AGTGTTGTAC, the switch fluorescence ratio is reported as 1.05. In the case of GGTTACTTTT, the switch fluorescence ratio is reported as 0.989. CTTTGTCGAA was tested, and the switch fluorescence ratio was 1.01. GGCTTCTGGT was tested, and the switch fluorescence ratio was 1.06. With CAGGAAAAGC the switch fluorescence ratio was 1.01. Work on CCTTGCCCCG yielded a switch fluorescence ratio of 1.06. With CTGAGTTGGT the switch fluorescence ratio was 0.972. Sequence CCCGTTCCCG has a switch fluorescence ratio of 1.06. TTAAAACTGC was tested, and the switch fluorescence ratio was 1.15. CCCAAGCAGT was tested, and the switch fluorescence ratio was 3.94. Work on GGGACACAAT yielded a switch fluorescence ratio of 1.02. TAAGAGGTCC was tested, and the switch fluorescence ratio was 1.05. With AATACTACTC the switch fluorescence ratio was 1.11. ACATCGTGCT gave a switch fluorescence ratio of 1.02. Work on AGAGGGTCAT yielded a switch fluorescence ratio of 0.985. In the case of GGCGTCCTAA, the switch fluorescence ratio is reported as 0.987. With GGACTACCCC the switch fluorescence ratio was 1.04. Work on CCTAAGCCCG yielded a switch fluorescence ratio of 0.988. In the case of GCTGCACATG, the switch fluorescence ratio is reported as 1. GTCCGGCATA gave a switch fluorescence ratio of 1.2. For GGAGTGCATA, the switch fluorescence ratio was 1.03. For ATACCTAGTC, the switch fluorescence ratio was 0.987. TAATTCCACG gave a switch fluorescence ratio of 1.05. For CGGTATATGT, the switch fluorescence ratio was 0.967. GGATGAGAAT gave a switch fluorescence ratio of 1.05. For CCGTGGATCT, the switch fluorescence ratio was 1.01. Sequence ATTATGCACT has a switch fluorescence ratio of 1.03. With GCTACGTAAT the switch fluorescence ratio was 6.24. With CTGAGAGGCC the switch fluorescence ratio was 1.05. GATCGAAGCG was tested, and the switch fluorescence ratio was 1.01. In the case of TGCCTTAGTT, the switch fluorescence ratio is reported as 1. In the case of TCATGCATCA, the switch fluorescence ratio is reported as 1.01. ATTTAGGTAT was tested, and the switch fluorescence ratio was 0.991. Sequence TTTGACACGG has a switch fluorescence ratio of 1.02. In the case of AAACGTTTCG, the switch fluorescence ratio is reported as 1.07. TTAGAAGTTG gave a switch fluorescence ratio of 1.04. AGCTTTAAAC was tested, and the switch fluorescence ratio was 1.03. GATGGGCAAC gave a switch fluorescence ratio of 1.01. With GCATGGGTAA the switch fluorescence ratio was 0.962. AAGCTGGCAG showed a switch fluorescence ratio of 1.02. In the case of CGCGCCCAGT, the switch fluorescence ratio is reported as 1.03. Work on TTTTTAAGTA yielded a switch fluorescence ratio of 0.961. Sequence TCTAAGTATC has a switch fluorescence ratio of 1.02. GGTTTCG gave a switch fluorescence ratio of 0.952. In the case of TGTGATCCC, the switch fluorescence ratio is reported as 0.993. For AGTGCTGGCC, the switch fluorescence ratio was 0.966. Sequence ATTTATAAGC has a switch fluorescence ratio of 1.02. TGCTTCGCCG was tested, and the switch fluorescence ratio was 0.98. For GCGTTGTCGG, the switch fluorescence ratio was 1.01. CAGGTGGCGT was tested, and the switch fluorescence ratio was 0.99. For TACTTGCGGT, the switch fluorescence ratio was 1.01. With TTCGACCCGG the switch fluorescence ratio was 0.997. With AGCTATGTCA the switch fluorescence ratio was 1.08. For TCCAGTGCCT, the switch fluorescence ratio was 1.11. In the case of ATGCCTTACC, the switch fluorescence ratio is reported as 1.5. AGATGAGTTG gave a switch fluorescence ratio of 0.974. CTGACTCAGT showed a switch fluorescence ratio of 1.19. In the case of ATCCGGAGAT, the switch fluorescence ratio is reported as 1. GAGCTCTGTG was tested, and the switch fluorescence ratio was 1.01. AAGAGTTGTT gave a switch fluorescence ratio of 0.921. TGAGCATTGT gave a switch fluorescence ratio of 1.01. Work on GGCCCGGGT yielded a switch fluorescence ratio of 1.01. Sequence GCATTAGTAA has a switch fluorescence ratio of 1. Sequence GGTAATTCGG has a switch fluorescence ratio of 1.02. With TATAAGGCCC the switch fluorescence ratio was 1. With ATTTGTAT the switch fluorescence ratio was 1.05. For AGCAGTCTTC, the switch fluorescence ratio was 0.99. CAGTTGCGAC showed a switch fluorescence ratio of 0.977. Work on CTAGATGTAC yielded a switch fluorescence ratio of 1.05. Sequence GTCGCACGTT has a switch fluorescence ratio of 1.03. Sequence CAAATAATTG has a switch fluorescence ratio of 1.02. Sequence TCAGCACCAT has a switch fluorescence ratio of 0.989. In the case of GCACGCACGT, the switch fluorescence ratio is reported as 1.51. In the case of TGTTGTACGA, the switch fluorescence ratio is reported as 1.04. TGTCCAAAAA gave a switch fluorescence ratio of 1.02. CATAGTGC gave a switch fluorescence ratio of 1.07. GAACAGGGAG was tested, and the switch fluorescence ratio was 1.03. CAAACGGTTC was tested, and the switch fluorescence ratio was 0.965. TAGTTGTTGG gave a switch fluorescence ratio of 0.972. AGTCCATACT gave a switch fluorescence ratio of 1.03. GTACGGGATG was tested, and the switch fluorescence ratio was 1.03. With AATCATACGG the switch fluorescence ratio was 1.03. For CAGACCAAGG, the switch fluorescence ratio was 1.03. Work on TTCCTGAGA yielded a switch fluorescence ratio of 1.09. For AGTCCCTTTG, the switch fluorescence ratio was 1.08. TATTGCTAGC showed a switch fluorescence ratio of 1.02. CCATACTAAT showed a switch fluorescence ratio of 1.07. Sequence TCCACGATGG has a switch fluorescence ratio of 1.09. GATACCTAAA was tested, and the switch fluorescence ratio was 1.06. With ACTAGAAGCC the switch fluorescence ratio was 1.03. ATTTCGCATG showed a switch fluorescence ratio of 1.02. With TTGAAATACC the switch fluorescence ratio was 1.04. AGACGCTATT gave a switch fluorescence ratio of 1.2. Work on CGTCTCGGGC yielded a switch fluorescence ratio of 1.04. GGGAATACGC was tested, and the switch fluorescence ratio was 1.1. ATTGTTGATA showed a switch fluorescence ratio of 1.02. TTCAGTGTCA showed a switch fluorescence ratio of 0.936. AAAGCGGAGT showed a switch fluorescence ratio of 1.04. In the case of GAGAATGCGG, the switch fluorescence ratio is reported as 1.06. GTTATTCCTC showed a switch fluorescence ratio of 1.09. For ACATCGCTTC, the switch fluorescence ratio was 1.18. In the case of GTCGGGCACA, the switch fluorescence ratio is reported as 1.05. For TGCGTGTGG, the switch fluorescence ratio was 0.967. For TGCCATTAGT, the switch fluorescence ratio was 0.952. With TTCAGATCAC the switch fluorescence ratio was 1. Sequence TGAATGAACA has a switch fluorescence ratio of 1.02. TGACCTATTA was tested, and the switch fluorescence ratio was 0.968. TCGTCTTAGA showed a switch fluorescence ratio of 0.947. For GGACAGGTCA, the switch fluorescence ratio was 1.03. For TCTGCTGATT, the switch fluorescence ratio was 0.997. TTGCATTGCA showed a switch fluorescence ratio of 0.977. With CGTCATGGTC the switch fluorescence ratio was 1.01. With TTGCGTTTGC the switch fluorescence ratio was 0.971. ACGGTCGGGA was tested, and the switch fluorescence ratio was 0.994. For TTTGTGAGC, the switch fluorescence ratio was 1.04. CAACTAAACG showed a switch fluorescence ratio of 1.15. In the case of AAACTATCCA, the switch fluorescence ratio is reported as 1.03. Work on CATCTATATT yielded a switch fluorescence ratio of 1.03. In the case of GAACCGAAGG, the switch fluorescence ratio is reported as 0.906. With AGTAGTAGGT the switch fluorescence ratio was 0.995. For CATGGCCCAT, the switch fluorescence ratio was 0.972. GAGTTAGGAT showed a switch fluorescence ratio of 0.948. In the case of TCGTCATCGT, the switch fluorescence ratio is reported as 0.959. ATGAACATTA showed a switch fluorescence ratio of 0.981. In the case of CCGTTGCTGG, the switch fluorescence ratio is reported as 1.03. Sequence AGTTTGCCCC has a switch fluorescence ratio of 0.961. CCCTATGCT showed a switch fluorescence ratio of 1.16. For CTGTTATGCT, the switch fluorescence ratio was 1. With ACTTAAGAT the switch fluorescence ratio was 1.03. GGATTCTTAT gave a switch fluorescence ratio of 0.982. In the case of TTCCATGTTA, the switch fluorescence ratio is reported as 1.09. Sequence AAGGACTAGT has a switch fluorescence ratio of 0.998. TCGACTTCCC gave a switch fluorescence ratio of 1.17. For CCATGCGAGA, the switch fluorescence ratio was 1.16. With GCCCTTTCGG the switch fluorescence ratio was 1. Sequence TTGAATTATC has a switch fluorescence ratio of 1.02. For CGATGGGGCG, the switch fluorescence ratio was 0.963. ACGGTGTAAA gave a switch fluorescence ratio of 0.987. GGTCACCTAC was tested, and the switch fluorescence ratio was 1.2. In the case of TTAGTAGCTT, the switch fluorescence ratio is reported as 1.01. TATTCGACGT was tested, and the switch fluorescence ratio was 1.05. Sequence TCCGTTGATT has a switch fluorescence ratio of 1.01. Sequence TTCGTGTATA has a switch fluorescence ratio of 0.986. ACTTGTAACC was tested, and the switch fluorescence ratio was 0.987. Work on TTTACACT yielded a switch fluorescence ratio of 1.04. CGCATAAGA gave a switch fluorescence ratio of 1.1. CTTAGTTTAG gave a switch fluorescence ratio of 0.949. GGGTGATGTT showed a switch fluorescence ratio of 1.08. GACATAATAT showed a switch fluorescence ratio of 1.06. For AAGTGCCGAT, the switch fluorescence ratio was 1.01. For GCGATTCCGG, the switch fluorescence ratio was 0.985. Sequence ATATTACCCA has a switch fluorescence ratio of 1.06. ACTGTGCTTG was tested, and the switch fluorescence ratio was 1.03. CAATCGTTGC gave a switch fluorescence ratio of 1.02.
